Results as given in PubChem BioAssay AID1461 (National Center for Advancing Translational Sciences (NCATS), 2008).
Out of some 220,000 compounds screened, about 2,300 (1%) were called active. This list was built around the results that the source calls inconclusive (neither active nor inactive); the mix of calls is not that of the screen. Calls follow the shape of the dose curve; as a rule, active = well fitted inhibition curve with a large enough effect; inconclusive = small, poorly fitted or top-dose-only effect, or effect the other way; inactive = no such curve, though single readings can be large or run the other way. No potency is given beside an inconclusive call; the fits are too rough.

Molecular target: Neuropeptide S receptor (Homo sapiens) (UniProt Q6W5P4)
UniProt Q6W5P4, sequence (Q6W5P4 whole entry, looked up): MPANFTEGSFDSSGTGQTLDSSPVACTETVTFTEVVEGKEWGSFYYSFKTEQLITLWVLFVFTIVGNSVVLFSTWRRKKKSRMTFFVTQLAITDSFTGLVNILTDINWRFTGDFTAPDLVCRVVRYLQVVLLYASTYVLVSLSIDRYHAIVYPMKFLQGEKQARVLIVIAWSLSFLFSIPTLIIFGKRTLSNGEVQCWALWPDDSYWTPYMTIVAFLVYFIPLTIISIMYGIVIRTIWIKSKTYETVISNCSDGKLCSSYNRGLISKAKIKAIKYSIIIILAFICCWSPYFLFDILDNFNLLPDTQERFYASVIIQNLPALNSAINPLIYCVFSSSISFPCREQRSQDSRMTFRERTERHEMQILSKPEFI
Experiment: qHTS Assay for Antagonists of the Neuropeptide S Receptor: cAMP Signal Transduction; also: nearly all actives have a fitted effect of over 50% in size
Settings: CHO-NPSR cells, cAMP TR-FRET, antagonist mode; series mostly up to 38.3 µM
Potency is read from the fitted curve at half-maximal effect; tags tell the direction and shape of the fitted curve.

Compound | Potency
Cc1cc(NC(=O)COc2ccc3oc4ccccc4c3c2)no1 | inconclusive [activator, single point]
Cc1cc(=O)oc(C)c1C(=O)N1CCCc2ccccc21 | inactive
CCOC(=O)C1(C)/C(=N/Nc2ccccc2)C(=O)C(=O)N1c1ccccc1 (stereo unspecified) | inactive
CCC(C)NS(=O)(=O)c1ccc(S(=O)(=O)N2CCCC3(CCCCC3)C2)cc1 (stereo unspecified) | inconclusive [inhibitor, single point]
COc1cccc(-n2nc(-c3ccnn3-c3ccccc3)c(=O)n(C)c2=O)c1 | inactive
O=C(Nc1ccccc1)c1cc2ccccc2o1 | inactive
O=C(CSc1ncnc2scc(-c3ccccc3)c12)Nc1ccc(C(=O)O)cc1 | inconclusive [activator, single point]
CCCCN1C(=O)C2(NNc3ccccc3O2)c2ccccc21 (stereo unspecified) | inactive
O=C(COC(=O)c1ccccc1C(=O)c1ccc(Cl)c([N+](=O)[O-])c1)NC1CCCCCC1 | active: 10 µM
COc1cc(C)c(NC(=S)Nc2ccc(Cl)c(Cl)c2)cc1OC | inactive
Cc1ccc2nc(C)cc(C(=O)OCC(=O)c3ccc(Cl)c([N+](=O)[O-])c3)c2c1 | inconclusive [inhibitor, single point]
O=S(=O)([O-])CCC[n+]1c(/C=C\Nc2ccccc2)oc2ccc(-c3ccccc3)cc21 | inactive
COc1ccc(S(=O)(=O)N(CCCN2CCCC2=O)Cc2cc3cc(C)c(C)cc3[nH]c2=O)cc1 | inconclusive [inhibitor, single point]
COc1cc(OC)c(C(=O)Nc2ccc(S(=O)(=O)Nc3ncccn3)cc2)cc1OC | inconclusive [activator, single point]
CNC(=S)N1N=C(c2ccc(C)cc2)CC1c1ccc(N(C)C)cc1 (stereo unspecified) | inactive
O=[N+]([O-])c1cc(/C=N\Nc2nccs2)ccc1O | active: 2.51 µM
Cc1cc(C)c2cc(C#N)c(SCC(=O)NCC3CCCO3)nc2c1 (stereo unspecified) | inconclusive [inhibitor, single point]
CC1CC(C)CN(C(=O)COC(=O)c2cc3ccccc3cc2O)C1 (stereo unspecified) | inconclusive [inhibitor, single point]
COc1ccc(C(=O)/C(=C/O)N=Nc2ccc(F)cc2)cc1 | inconclusive [inhibitor, single point]
Cc1[nH]nc(Nc2ccc(C(C)C)cc2)c1[N+](=O)[O-] | inactive
COc1ccc(N=C2S/C(=C\c3ccc(N4CCOCC4)o3)C(=O)N2CCc2c[nH]c3ccccc23)cc1 | inconclusive [inhibitor, full curve]
Cn1cccc1C(=O)C(=O)Nc1ccccc1 | inactive
O=S(=O)(NC1CCCC1)c1cccc(-c2nnc(-c3ccccc3)o2)c1 | inconclusive [inhibitor, single point]
Nc1c(C(=O)NCCN2CCOCC2)c2nc3ccccc3nc2n1CCc1ccccc1 | inconclusive [inhibitor, partial curve]

Compound | Potency
O=c1c2ccccc2sn1-c1ccccc1 | inconclusive [inhibitor, partial curve]
COC(=O)c1cc(CC(=O)c2ccc(O)cc2O)c(C)o1 | inactive
CC(C)CNc1ncnc2c1sc1nc(N3CCOCC3)c3c(c12)CC(C)(C)OC3 | inconclusive [inhibitor, single point]
Cc1ccc(C(=O)Nc2ccc3nc(C)sc3c2)s1 | inactive
O=C(Oc1c(CN2CCOCC2)cc(Cl)c2cccnc12)c1ccccc1F | active: 7.94 µM
Nc1ncnc2c1ncn2[C@@H]1O[C@H](COP(=O)(O)OP(=O)(O)OP(=O)(O)OP(=O)(O)OC[C@@H]2O[C@H](n3cnc4c(N)ncnc43)[C@@H](O)[C@@H]2O)[C@H](O)[C@H]1O | inconclusive [inhibitor, single point]
O=C(O)CCc1ccc(-c2ccc(F)cc2)n1CCC(=O)O | inactive
O=C(Nc1cccc(S(=O)(=O)N2CCCCC2)c1)Nc1ccc(Cl)cc1Cl | inconclusive [inhibitor, single point]
CC(c1ccc(Cl)cc1)n1c(-c2ccc3ccccc3n2)n[nH]c1=S (stereo unspecified) | inconclusive [inhibitor, partial curve, poor fit]
COCCN(CCOC)S(=O)(=O)c1ccc(C(=O)Nc2nnc(C3CC3)o2)cc1 | inconclusive [activator, partial curve, poor fit]
Cc1cc2ncn(C(=O)c3c(-c4c(Cl)cccc4Cl)noc3C)c2cc1C | inconclusive [inhibitor, single point]
COC(=O)COc1ccc(S(=O)(=O)Nc2ccc(C(N)=O)cc2)cc1Cl | inactive
COc1cc2cc(C#N)c(SCC(=O)N3CCOCC3)nc2cc1OC | inactive
Cn1c(=O)n(C/C=C/c2ccccc2)c(=O)c2c1nc1n2CCCN1c1ccc(F)cc1 | inconclusive [inhibitor, single point]
O=C(CCn1nc(-c2ccc(Cl)cc2)c2ccccc2c1=O)NCC1CCCO1 (stereo unspecified) | inconclusive [inhibitor, single point]
COc1ccc(/C=C2/SC(=S)N(c3ccc(S(=O)(=O)Nc4nccs4)cc3)C2=O)cc1 | inactive
COc1ccc(/C=C2\CCCC3C2=NN(C(=O)c2ccco2)C3c2ccc(OC)c(OC)c2)cc1OC (stereo unspecified) | inconclusive [inhibitor, full curve]
CCOc1ccccc1OCCOc1ccccc1CC | inconclusive [activator, partial curve]
O=C(CSc1cn(Cc2ccccc2)c2ccccc12)NCc1ccc(F)cc1 | inactive
O=[N+]([O-])c1cc2cccnc2c2ncccc12 | inactive
Cc1ccc(NC(=S)NC(NC(=O)Cc2cccc3ccccc23)C(Cl)(Cl)Cl)cc1 (stereo unspecified) | inconclusive [inhibitor, single point]
CC(=O)NNc1nc2ccccc2s1 | inactive
Cc1ccc(C)c(S(=O)(=O)NCc2ccc(C(=O)N3CCC(Cc4ccccc4)CC3)cc2)c1 | inconclusive [inhibitor, partial curve]
CCOc1cccc(C(=O)Nc2ccc(N3CCN(S(C)(=O)=O)CC3)cc2)c1 | inconclusive [inhibitor, single point]

Compound | Potency
Cc1ccc2cc(CN(Cc3ccco3)C(=O)NC3CCCCC3)c(=O)[nH]c2c1C | inconclusive [inhibitor, partial curve, poor fit]
CCOc1ccc(CCNC(=O)C2CCN(S(=O)(=O)N3CCCCC3)CC2)cc1OCC | inactive
COc1ccccc1C1CC(c2ccc(Br)cc2)=NN1C(=O)c1cccnc1 (stereo unspecified) | inconclusive [inhibitor, single point]
COc1ccc([C@H]2[C@H](C(=O)C(C)(C)C)N3N=Cc4ccccc4C3[C@]23N=C(c2ccccc2)OC3=O)cc1 (stereo partly specified) | inconclusive [inhibitor, partial curve]
CCOC(=O)N1CCN(C(=O)CN(C2CCCCC2)S(=O)(=O)c2ccc(C)cc2)CC1 | inconclusive [inhibitor, partial curve]
Cc1c(CCC(C)C)c(-n2ccnc2C)n2c(nc3ccccc32)c1C#N | inactive
N#C/C(=C(/O)c1cc2ccccc2o1)c1nc2ccccc2s1 | inactive
CC(=O)Nc1sc2c(c1C(c1ccc(Cl)cc1)N1CCOCC1)CCCC2 (stereo unspecified) | inconclusive [inhibitor, single point]
COc1cccc(C2C(C(=O)c3cccs3)=C(O)C(=O)N2CCCn2ccnc2)c1OC (stereo unspecified) | inconclusive [inhibitor, full curve, poor fit]
Cc1ccc(C2=N/C(=C/c3cccs3)C(=O)N2Nc2ccccc2)cc1 | inconclusive [inhibitor, partial curve]
Cc1ccc(-c2nnc(SCc3nc4ccccc4[nH]3)n2Cc2ccco2)cc1 | inactive
COC(=O)c1ccc(C)c(NC(=O)CCc2ccc(OC)cc2)c1 | inactive
COc1ccccc1NC(=O)N1CCc2[nH]c3ccc(Cl)cc3c2C1 | inconclusive [inhibitor, single point]
Cc1ccc(-n2c(O)c(C=Nc3ccc4c(c3)OCO4)c3ccccc3c2=O)cc1C | inactive
O=C(O)c1cc(-c2cccnc2)nc2ccc(Br)cc12 | active: 5.01 µM
Nc1ccccc1SC(C[N+](=O)[O-])c1ccccc1 (stereo unspecified) | inconclusive [inhibitor, single point]
CCOC(=O)/C(=N\Nc1ccc(OC)cc1)c1csc(Nc2ccccc2)n1 | inconclusive [inhibitor, single point]
CC(=O)c1sc(C(C)(C)C)cc1NC(=O)/C=C/C(=O)O | inconclusive [activator, partial curve]
CCSc1nc2ccccc2n1CC(=O)N1CCCCC1 | inconclusive [inhibitor, partial curve, poor fit]
CCOc1ccc(C2C(C#N)=C(N)N(c3sc4c(c3C#N)CCCC4)C3=C2C(=O)CCC3)cc1 (stereo unspecified) | inconclusive [inhibitor, partial curve]
COc1ccc(NCc2nnc(SCC(=O)N3CCCc4ccccc43)n2C)cc1 | inconclusive [inhibitor, single point]
CCOc1ccc(N(CCCCO)C(=S)NC(=O)c2ccc(C)c(Br)c2)cc1 | inactive
O=C(Nc1cnn(Cc2c(Cl)cccc2Cl)c1)C(c1ccccc1)c1ccccc1 | inconclusive [inhibitor, single point]
